In all, about 420,000 compounds went through this assay and about 64,000 (15%) were called active. The inconclusive results got no clear call from the source; some entries with a clear call stand among them for comparison. Calls follow the shape of the dose curve; as a rule, active = well fitted inhibition curve with a large enough effect; inconclusive = small, poorly fitted or top-dose-only effect; inactive = flat fitted curve, though single readings scatter. Potencies of inconclusive entries are left out as doubtful fits.
Experiment: qHTS for Inhibitors of human tyrosyl-DNA phosphodiesterase 1 (TDP1): qHTS in cells in absence of CPT; also: nearly all actives have a fitted effect of over 55% in size
Settings: DT40 Tdp1-/- hTDP1 cells, no CPT, ATP luminescence, 48 h; activity change, negative = growth inhibition: at 46.2 µM (top of the series) unless noted
In short: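 Growth of hTDP1-complemented DT40 Tdp1-knockout cells is measured by ATP luminescence after at least 48 hr compound exposure at 37 °C, with DMSO substituting for the 20 nM CPT used in the parallel screen.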
With CCOc1ccccc1NC(=O)C(C)N(c1ccccc1)S(C)(=O)=O (stereo unspecified) the Potency was inconclusive [inhibitor, partial curve, poor fit].
With O=S(=O)(c1ccc(Cl)cc1)N1CCN(C2CCCCCC2)CC1 the “activity change, negative = growth inhibition” value was inactive: -20.1%.
With O=C(N/N=C\c1cccc(Cl)c1)c1ccc(Cn2cc(Br)c([N+](=O)[O-])n2)o1 the “activity change, negative = growth inhibition” value was inactive: -26.1%.
In the case of Cc1ccc(CC(=O)NC2CCCc3ccccc32)cc1C (stereo unspecified), the Potency was inconclusive [inhibitor, single point].
With Cc1cc(OCc2cc(C(=O)NCC3(C)COC3)no2)cc(C)c1Cl the Potency was inconclusive [inhibitor, single point].
With CCOC(=O)c1ccc(OC(=O)c2cn(-c3cccc(OC)c3)c(=O)c3ccccc23)cc1 the Potency was inconclusive [inhibitor, single point].
For CCC(CC)N1CCN(S(=O)(=O)c2ccc(OC)cc2)CC1, the “activity change, negative = growth inhibition” value was inactive: -7.29%.
For C/C(=N\NC(=O)CSCc1ccc([N+](=O)[O-])cc1)c1ccccc1O, the Potency was active: 3.66 µM.
In the case of CCOC(=O)N1CCN(Cc2nc(N)nc(Nc3ccc(OC)cc3)n2)CC1, the “activity change, negative = growth inhibition” value was inactive: -15.5%.
In the case of Cc1ccc(Cn2c(=S)[nH]c3ccc(N4CCOCC4)cc3c2=O)o1, the Potency was active: 16.4 µM.
In the case of Cc1cccc(Cc2c(C)nc3nc(SCC(=O)NCc4ccco4)nn3c2C)c1, the Potency was inconclusive [inhibitor, single point].
In the case of CCc1ccc2c(c1)NC(c1ccc(OC)cc1)=NC(c1ccncc1)=N2, the Potency was inconclusive [inhibitor, single point].
For Cc1ccc(/C=C2\Sc3ccccc3C2=O)s1, the Potency was inconclusive [inhibitor, single point].
For Nc1nc(SCC(=O)NCc2ccccc2)[nH]c(=O)c1NC(=O)c1ccccc1F, the Potency was inconclusive [inhibitor, full curve].
For c1ccc(-c2cn3cccnc3n2)cc1, the “activity change, negative = growth inhibition” value was inactive: -1.58%.
In the case of O=C(Nc1cc(S(=O)(=O)N2CCOCC2)ccc1Cl)C1CCC1, the “activity change, negative = growth inhibition” value was inactive: 3.86%.
In the case of Cc1ccc2c(c1)N(CCCC(=O)NCc1cccc(F)c1)C(=O)CO2, the Potency was inconclusive [inhibitor, partial curve].
For COc1ccc(N=Cc2c(O)c3ccccc3n2C(C)=O)cc1, the Potency was active: 20.6 µM.
With O=C(c1c(F)cccc1F)N1CCN(CCOc2ccccc2)CC1 the Potency was inconclusive [inhibitor, partial curve, poor fit].
In the case of O=c1c2c3c(sc2ncn1/N=C/c1ccccc1)CCCC3, the “activity change, negative = growth inhibition” value was inactive: -8.95%.
For Oc1cccc(NC(=S)N=Nc2c(O)[nH]c3ccc(Br)cc23)c1, the Potency was inconclusive [inhibitor, single point].
% is scaled to controls: 0 for no effect and ±100 for the full control effect; potency is read from the fitted curve at half-maximal effect; tags tell the direction and shape of the fitted curve.
